Experimental findings from the RNAGym collection of RNA variant scans (doi:10.1093/nar/gkz1192) are described below.

B1: CPEB3 Ribozyme (parent)
chain: UAACAGGGGGCCACAGCAGAAGCGUUCACGUCGCAGCCCCUGUCAGAUUCUGGUGAAUCUGCGAAUUCUGCUGUAUAUCUC

Read counts are not given, so values of variants with three or more changes are uncertain.

In this data set the parent is B1. Description: self-cleavage, relative activity (ratio to wild type); higher = more cleavage; in vitro, sequencing. The gist of the method:
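Barcoded CPEB3 ribozyme mutants, produced by rounds of error-prone PCR, self-cleaved while being transcribed with T7 RNA polymerase for 5 hours at 37°C and during a subsequent 15 min DNase I step before EDTA was added. Sequencing of template-switched cDNA on Illumina gave cleaved and total reads, and DNA sequencing assigned barcodes to variants. Each variant's relative activity is its cleaved/total read fraction divided by the unmutated ribozyme's fraction, averaged across three batches. A variant needed a minimum of 5 reads.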
Consider A5U U26A U31C A56G U58G U69C U78C, for which the self-cleavage came out at 0.07.
The result for A5U A28U G33U A77U reads 0.21; that for A5U C17U U25C U49C G52U A57U U74C, 0.08.
For A5U G6A A28G C29G U31A U54A the value was 0.38; for A5U C11U A57G, 0.56; for A5U U26C C39U A45U U49C A57G U69C, 0.06.
For A5U C23G A28G A56G G63C U80C the value was 0.13.
Take A5U C38U U72C: the self-cleavage turned out to be 1.16.
Consider A5U C23A A28G U54C U80C, for which the self-cleavage stood at 0.1.
For A5U A35U U48C C50G the value was 0.22; for A5U C40G U41C U54A, 0.31.
Consider A5U U25C A28G U60A, for which the self-cleavage amounted to 0.44.
The result for A5U G22C C37U reads 0.1.
For A5U G8A A57G G61A U72C the value was 0.14; for A5U C34A A45G U48C U54A, 0.11; for A5U A35G U67A U74C, 1.26.
For A5U A35G A45U U51C the value was 0.87; for A5U C11U A15U A18G U51C, 0.04.
On to A5U C12U A20U U25C C32U A64G, for which the self-cleavage came out at 0.2.
On to A5U U25C A28G C44A, for which the self-cleavage came to 0.3.
For A5U A35G A57C the value was 0.91; for A5U A35G A57U, 1.22.
The result for A5U G16A U25C U51A reads 0.1; that for A5U U25A C40A U58C U67C U72A, 0.08.
For A5U G33U A56G U80A the value was 0.24.
With A5U C11U A28U U74C A77U U78A, the self-cleavage stood at 0.69.
The result for A5U A45U G70A U78C reads 0.22.
The result for A5U G10A U31C A35G U43C U48C U51A reads 0.24.
For A5U C39U A64G A75U U78C the value was 0.27.
For A5U G16C A21G C81U, the self-cleavage turned out to be 0.16.
As for A5U G8C U72A, the self-cleavage was found to be 0.16.
For A5U U25C G53C U74C the value was 0.21; for A5U G6A A13U U43A U80A, 0.64.
The result for A5U G7U A20C U41C reads 0.06; that for A5U G33A A56U U58C A64U, 0.1; that for A5U A45G A47G A64G U66C, 0.17.
The result for A5U C39A A45U C68A reads 0.11; that for A5U C50U A56G U67C U80C, 0.2.
Turning to A5U G52C U72A, the self-cleavage was found to be 0.81.
For A5U C11A A20G A21U A28U U51C C59A the value was 0.05.
On to A5U A47G U69C U74G A77G, for which the self-cleavage was 0.76.
The result for A5U G9U U26A U76C reads 0.38.
For A5U U25A U26C A45G G55A A56U the value was 0.16; for A5U C37U U80C, 0.51; for A5U G8A A28G U43C U80G, 0.07.
The result for A5U U25G U26A U48C U72C reads 0.1; that for A5U C29A G70A, 0.07; that for A5U A47G U51G U66C U74C, 0.09.
A5U C39U A56G G70U U72C: the self-cleavage amounted to 0.12.
For A5U G30U U41G U48C U74A, the self-cleavage turned out to be 0.21.
For A5U G9A U41C A45U C62U the value was 0.17; for A5U G8A A18G U48C U49C U60A, 0.23.
Consider A5U A64U A65G, for which the self-cleavage stood at 0.12.
For A5U A45U U60C the value was 0.83; for A5U C29A A65G U80A, 0.42.
The result for A5U A45G C62G reads 0.38.
Consider A5U G7U A15U C50U U54C A56U A57G, for which the self-cleavage turned out to be 0.07.
The result for A5U G22C U49C U54C G70C reads 0.18; that for A5U C23G C27A A35U A75U A77U, 0.07; that for A5U C23U A75U, 0.42.
The result for A5U G7U A18G U26C reads 0.11.
Regarding A5U U25C A56U U60A U80C, the self-cleavage stood at 0.11.
The result for A5U C17U U49C A57G A75U reads 0.24; that for A5U C12G U31C U67C, 0.09; that for A5U U26C C62U A64C U72C, 0.25.
The result for A5U C14U A15U G24A G53A U72C reads 0.41; that for A5U A45U A64U C68U, 0.12; that for A5U U26A A47G U49A U60C A64U, 0.12.
In the case of A5U G6A C23U U26C, the self-cleavage came out at 0.06.
For A5U A45G U49C U54C U72C the value was 0.27.
The result for A5U G9U C39U U43C G52C U67C reads 0.05.
A5U G19U C50A: the self-cleavage was 0.04.
The result for A5U U26C C40U U67A reads 0.15; that for A5U C39U U69C U72A, 0.25.
Take A5U G33U A47G G53U U60G U66C: the self-cleavage turned out to be 0.09.
For A5U G24A U31C U43G A45G the value was 0.12; for A5U U26C U41A U43G U67A, 0.19.
The result for A5U U26C U31C U43C U60C U72C reads 0.12; that for A5U U25C C40U A47G U51A C79U, 0.08.
The result for A5U A64G U76C U80A reads 1.19; that for A5U C11G A15U C17U, 0.49.
A5U C32U G36C U60C U72C: the self-cleavage was 0.07.
For A5U C39A U74C the value was 0.66; for A5U G53C U58C G61C A64U U69A U72C, 0.15.
